Experimental data as given in PubChem BioAssay AID686979 (National Center for Advancing Translational Sciences (NCATS), 2013).
Several values for one entry are separate records, joined by “and”; a condition that tells them apart may be missing. Equal entries are not always repeated. In all, about 420,000 compounds went through this assay and about 50,000 (12%) were called active. Inconclusive means that the source gave no clear call. Such entries were picked first, then a sample of the others. Calls follow the shape of the dose curve; as a rule, active = well fitted inhibition curve with a large enough effect; inconclusive = small, poorly fitted or top-dose-only effect; inactive = flat fitted curve, though single readings scatter. No potency is given beside an inconclusive call; the fits are too rough.

assay: qHTS for Inhibitors of human tyrosyl-DNA phosphodiesterase 1 (TDP1): qHTS in cells in presence of CPT; conditions: chicken DT40 Tdp1-/-;hTDP1 cells + 20 nM CPT, ATP luminescence, 48 h; series mostly up to 46.2 µM; also: nearly all actives have a fitted effect of over 55% in size
How it was run: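 Cell growth measured by CellTiter-Glo luminescence after a minimum 48 h, 37 C compound exposure with 20 nM CPT in Tdp1-knockout DT40 cells stably expressing hTDP1, seeded 400/well; qHTS titration format.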
Potency is read from the fitted curve at half-maximal effect; tags tell the direction and shape of the fitted curve.

Row | SMILES | Potency
1 | COC(=O)C1=C(C)N(CC(C)C)C(=O)/C1=C\c1cccs1 | inconclusive [inhibitor, partial curve]
2 | Cc1cccc(N2C(=O)N(Cc3cc(=O)n4ccccc4n3)c3ccccc3S2(=O)=O)c1 | inconclusive [inhibitor, single point]
3 | O=C(Nc1ccc(Br)cc1)C1C2C=CC3(O2)C1C(=O)N(CCN1CCOCC1)C3C(=O)NC1CCCCC1 (stereo unspecified) | inactive
4 | CC(C)(C)N1C(=O)[C@H]2[C@@H](c3ccc(Br)cc3)N3C(=O)N(c4cccc(Cl)c4)C(=O)[C@@]3(Cc3ccccc3)[C@H]2C1=O | inconclusive [inhibitor, single point]
5 | Cc1cc(C)cc(OCC(O)CN2CCC(CN3C(=O)c4cccc5cccc(c45)C3=O)CC2)c1 (stereo unspecified) | active: 14.6 µM
6 | Cc1sc2ncnc(N3CCN(S(=O)(=O)c4ccc(F)cc4)CC3)c2c1C | inconclusive [inhibitor, single point]
7 | CCNc1ncc2ncc(=O)n(CCOC)c2n1 | inconclusive [inhibitor, single point]
8 | CCOC(=O)C1=C(C)N=c2s/c(=C3\C(=O)Nc4ccccc43)c(=O)n2C1c1ccc2c(c1)OCO2 (stereo unspecified) | inconclusive [inhibitor, single point]
9 | N=c1c2c(n(Cc3ccc(F)cc3)c3c1CCC3)CCCC2 | active: 0.82 µM
10 | CCOC(=O)c1sc2nc(N3CCCC3)c3c(c2c1N)CC(C)(C)OC3 | inactive
11 | Cc1ccc(-c2cnc(C(O)c3cccc(Cl)c3)[nH]2)cc1 (stereo unspecified) | inactive
12 | O=C(c1cnn2c(C(F)F)cc(-c3ccccc3)nc12)N1CCc2ccccc2C1 | inconclusive [inhibitor, single point]
13 | Cn1cccc1Cc1nnc(SCC(=O)Nc2ccc3c(c2)OCCO3)n1CCc1ccccc1 | inconclusive [inhibitor, single point]
14 | CC(C)NC(=O)Cn1c(SCC(=O)N2CCCc3ccccc32)nc2ccccc21 | inactive
15 | CCN(CC)CCCNC(=O)c1nn(-c2ccc(OC)c(Cl)c2)c(=O)c2c1c1ccccc1n2C | inconclusive [inhibitor, single point]
16 | OC(c1ccccc1)(c1ccccc1)C1CCN(C(=S)NC2CCCC2)CC1 | inconclusive [inhibitor, single point]
17 | Cc1cccc(NC(=O)CN2C(=O)COc3ccc(S(=O)(=O)N4CCC(C)CC4)cc32)c1C | inactive
18 | CCOc1ccc(NC(=O)CCS(=O)(=O)c2ccc(Br)s2)cc1 | active: 18.4 µM
19 | O=C(NCCNC(=O)c1ccccc1Br)c1cccnc1 | inactive
20 | N#Cc1c(N)n(-c2ccccc2)c(=O)c2cc([N+](=O)[O-])ccc12 | inconclusive [inhibitor, single point]
21 | Cc1nn(C)cc1C(=O)c1ccccc1 | inactive
22 | O=C1CCN(CCc2ccccc2)CCN1[C@H](COc1ccccc1)c1ccccc1 | active: 11.2 µM and active: 14.6 µM
23 | COc1ccc(NC(=O)CSc2nnc3scc(-c4ccc(Cl)cc4)n23)cc1 | inactive

Row | SMILES | Potency
24 | COc1ccc(N2CC(C(=O)N/N=C/c3ccc(C)cc3)CC2=O)cc1 (stereo unspecified) | active: 1.3 µM
25 | O=C(Nc1noc2ccccc12)c1c(F)cccc1F | inconclusive [inhibitor, single point]
26 | Cc1ccc(-n2c3nc(=O)[nH]c(=O)c-3cc3cc([N+](=O)[O-])ccc32)cc1C | active: 0.58 µM
27 | Cc1n[nH]c(=O)nc1N/N=C/c1ccc(O)c([N+](=O)[O-])c1 | inactive
28 | Cc1ccc(CC(=O)Nc2ccncc2)cc1 | active: 5.8 µM
29 | CCCc1ccc2ccc3ccccc3c2n1 | inconclusive [inhibitor, single point]
30 | CC(C)CNC(=O)c1ccc(C2SCC(=O)N2Cc2ccccc2)cc1 (stereo unspecified) | inconclusive [inhibitor, single point]
31 | CSc1nsc(/C=C/Nc2ccc(C)c(C)c2)c1C#N | inconclusive [inhibitor, single point]
32 | COc1cccc(-c2cc(NC=O)c3ncc(-c4ccc(OC)c(OC)c4)n3c2)c1 | active: 5.17 µM
33 | COCCCNc1ncnc2c1sc1nc(-c3ccco3)c3c(c12)CC(C)(C)OC3 | inconclusive [inhibitor, single point]
34 | O=C(c1cnccn1)N(Cc1cccs1)C1(C(=O)NC2CCCCC2)CCCCC1 | inconclusive [inhibitor, partial curve, poor fit]
35 | Cc1nc([N+](=O)[O-])c(Br)n1CC(=O)c1cccc([N+](=O)[O-])c1 | active: 14.6 µM
36 | COCCOc1ccc(C(F)(F)F)cc1Nc1nc2ccccc2o1 | inconclusive [inhibitor, single point]
37 | COc1ccc(Nc2nc3c([nH]2)c(=O)[nH]c(=O)n3C)cc1 | inactive
38 | CCN(CC)S(=O)(=O)c1ccc2[nH]c(=O)cc(C(=O)Nc3ccccc3N3CCOCC3)c2c1 | inactive
39 | O=[N+]([O-])c1ccc(COc2cccc(CN3CCOCC3)c2)cc1 | active: 18.4 µM
40 | FC(F)(F)c1cccc(-c2cc3nc(NCCOc4ccccc4)ccn3n2)c1 | inconclusive [inhibitor, single point]
41 | CC(NC(=S)Nc1cccc(F)c1)C(c1cccs1)N1CCOCC1 (stereo unspecified) | inconclusive [inhibitor, partial curve, poor fit]
42 | Cc1cccc(-c2nc(CCNC(=O)c3ccccc3Br)cs2)c1 | active: 18.4 µM
43 | Cc1ccc(CN2C3=NCCN3c3ccccc32)cc1 | inconclusive [inhibitor, single point]
44 | O=C(NCC1CCCO1)c1cc(S(=O)(=O)N2CCCCC2)ccc1Cl (stereo unspecified) | inactive
45 | Cc1cc2cc(C)c3nnc(SCC(=O)Nc4ccc(S(=O)(=O)N5CCCCC5)cc4)n3c2cc1C | inconclusive [inhibitor, full curve, poor fit]
46 | OCC1OC(n2cnc3c(NO)ncnc32)C(O)C1O (stereo unspecified) | active: 0.891 µM
